According to publication PMC4336329 (PLoS ONE, 2015):
Hit rate of the full screen: of about 310,000 compounds, about 2,200 (0.71%) showed an effect of 50% or more. The effect is printed as a negative number. The list shows a part of the results.

molecular target: human ether-à-go-go-related gene (hERG) potassium channel (human, UniProt Q12809); experiment: primary screen, population patch clamp on CHO cells stably expressing hERG
Sequence (Q12809 whole entry, looked up): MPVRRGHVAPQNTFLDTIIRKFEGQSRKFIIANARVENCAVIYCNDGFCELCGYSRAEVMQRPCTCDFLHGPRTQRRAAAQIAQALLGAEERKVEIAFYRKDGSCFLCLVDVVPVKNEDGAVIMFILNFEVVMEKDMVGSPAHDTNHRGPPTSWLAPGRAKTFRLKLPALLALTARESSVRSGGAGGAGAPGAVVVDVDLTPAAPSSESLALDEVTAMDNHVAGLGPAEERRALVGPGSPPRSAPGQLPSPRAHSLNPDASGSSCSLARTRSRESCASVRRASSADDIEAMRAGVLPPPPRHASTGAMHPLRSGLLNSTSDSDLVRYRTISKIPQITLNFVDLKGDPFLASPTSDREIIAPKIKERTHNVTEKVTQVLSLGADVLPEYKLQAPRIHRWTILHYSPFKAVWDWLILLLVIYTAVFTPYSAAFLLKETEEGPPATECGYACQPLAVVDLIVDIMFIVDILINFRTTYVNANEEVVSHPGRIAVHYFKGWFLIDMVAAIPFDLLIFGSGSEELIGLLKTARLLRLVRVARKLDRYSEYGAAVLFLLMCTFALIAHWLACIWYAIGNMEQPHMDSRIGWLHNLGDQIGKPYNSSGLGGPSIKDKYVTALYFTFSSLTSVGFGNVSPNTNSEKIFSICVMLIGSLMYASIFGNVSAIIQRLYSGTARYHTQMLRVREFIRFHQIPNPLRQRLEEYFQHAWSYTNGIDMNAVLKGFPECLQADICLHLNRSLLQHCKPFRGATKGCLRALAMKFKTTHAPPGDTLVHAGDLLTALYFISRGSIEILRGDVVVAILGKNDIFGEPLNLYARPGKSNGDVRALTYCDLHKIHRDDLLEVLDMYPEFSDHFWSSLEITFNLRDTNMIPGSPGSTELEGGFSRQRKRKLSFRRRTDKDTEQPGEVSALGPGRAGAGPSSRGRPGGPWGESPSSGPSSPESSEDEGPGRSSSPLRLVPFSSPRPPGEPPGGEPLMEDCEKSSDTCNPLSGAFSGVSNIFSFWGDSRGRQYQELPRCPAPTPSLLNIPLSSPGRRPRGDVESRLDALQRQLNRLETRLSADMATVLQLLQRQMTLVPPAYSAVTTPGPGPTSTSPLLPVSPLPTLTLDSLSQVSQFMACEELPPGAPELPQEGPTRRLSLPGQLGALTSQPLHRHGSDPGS

SMILES | hERG current change (%, negative = inhibition) at 1uM [%]
Cc1cccc(OCC(=O)OCC(=O)N(CC(C)C)c2c(N)n(Cc3ccccc3)c(=O)[nH]c2=O)c1C | 1.56
C=C(C)COc1ccc(-c2nc(N)ncc2-c2ccc(Cl)cc2)c(O)c1 | 2.87
CC(C)C[C@H](N)C(=O)N1CCC(C(=O)N[C@H](C(=O)NC(C)c2ccccc2)C(C)C)CC1 (stereo partly shown) | 14.8
CC1Nc2ncnc(N3CCc4ccccc4C3)c2N(Cc2ccc(Cl)cc2)C1=O.O=C(O)C(F)(F)F (stereo not shown) | 19.4
CN(CCn1ccnc1)C(=O)CC1C(=O)NCCN1Cc1ccccc1C(F)(F)F (stereo not shown) | 9.63
COc1ccccc1/C=N/NC(=O)CNC(=O)c1ccc(S(=O)(=O)N(C)C)cc1 | 7.11
O=[N+]([O-])c1ccccc1S(=O)(=O)Nc1cccnc1 | 26.7
Cc1oc(/N=C/c2cccc3ccccc23)c(C#N)c1C | 4.48
COC(=O)c1cc(OC)c(OC)cc1NC(=O)c1ccc(Br)o1 | 10.3
CC(Oc1ccccc1)C(=O)Nc1cccc([N+](=O)[O-])c1 (stereo not shown) | -6.44
CCCCCCOC(=O)C(C#N)c1nc2ccccc2nc1N1CCN(C)CC1 (stereo not shown) | -2.57
C/C(=N\NC(=S)NCc1ccccc1)c1cccc(Br)c1 | 13.8
O=C(CCCCn1c(=O)c2ccccc2n(Cc2ccccc2F)c1=O)NC1CCN(Cc2ccccc2)CC1 | 8.82
Cc1cc(C(=O)NCCCN2CCCC2=O)no1 | 22.7
CCCCn1c(-c2ccccc2C)nc2cc3[nH]c(=O)c(C(C)C)nc3cc21 | 2.47
CCOC(=O)c1cnn2c1[nH]c(=O)c1ccccc12 | 15.4
Cc1ccc(S(=O)(=O)N2CCCOC2CNC(=O)C(=O)NCc2ccccn2)cc1 (stereo not shown) | 13.5
NC(=O)NC(=O)COC(=O)c1sc2ccccc2c1Cl | 3.3
Cc1ccc(CCNC(=O)CN(C)S(=O)(=O)c2ccc3c(c2)n(C)c(=O)c(=O)n3C)cc1 | -4.05
O=C(NCC1CCCO1)c1cccc(-n2cnnn2)c1 (stereo not shown) | 13.9
COc1ccc(NC(=O)Nc2nc3ccccc3s2)cc1 | 8.88
CC(C)OC(=O)/C(C#N)=C/c1ccc(-c2ccc(SC(F)F)cc2)o1 | 8.55

SMILES | hERG current change (%, negative = inhibition) at 1uM [%]
O=C(c1cc(-c2cccc(Cl)c2)nc2ccccc12)N1CCCC1 | 3.8
Cc1cc(SCC(=O)NC2CCCCC2)nc2ccccc12 | 11
NC1CCCCC1N=Cc1c(O)n(Cc2ccc(F)cc2)c(=O)[nH]c1=O (stereo not shown) | 14.5
COc1ccc(/C=C/C(=O)N2CCN(S(=O)(=O)c3ccccc3)CC2)cc1OC | 2.76
Cc1ccc(NC(=O)c2ccccc2F)cc1S(=O)(=O)N1CCCCCC1 | 17.5
CC(OC(=O)/C=C/c1ccccc1)C(=O)NC1CCCCC1C (stereo not shown) | 10.8
COCCNS(=O)(=O)c1cc2[nH]c3c(c2cc1C)C(=O)CC(C)(C)C3 | 9.23
Cc1ccc(O)c(NC(=O)CSc2n[nH]c(C)c2[N+](=O)[O-])c1 | 18.2
C=CCN1c2ccccc2[C@]23C[C@@H](C(=O)OC)N(C(=O)CC(C)C)C2=NC(C(=O)OC)=C(C(=O)OC)[C@H]13 | 2.72
O=c1c2c3c(sc2ncn1Cc1ccc(F)cc1)CCC3 | 4.34
CCOC(=O)N1CCN(C(=O)CCC(=O)c2ccc(OCC)cc2)CC1 | 14.2
O=C(CSc1nnc(-c2cccnc2)o1)Nc1ccccc1F | 2.7
CCCC(=O)NCCc1nc2ccccc2n1CC(=O)c1ccccc1 | -0.165
Cc1ccc(S(=O)(=O)c2c(C)cc(C)nc2Cl)cc1 | 9.77
Cc1cc(NC(=O)CSCC(=O)Nc2ccccc2Oc2ccccc2)no1 | 10.3
COc1ccccc1CCc1nnc(N)s1 | 20.5
Cc1cccc(S(=O)(=O)c2c(N)n(/N=C/c3cccnc3)c3nc4ccccc4nc23)c1 | 0.902
CCNc1ccc(S(=O)(=O)N(C)C)cc1[N+](=O)[O-] | 6.6
N/C(=N\[N+](=O)[O-])N1CCN(C(=O)Oc2ccccc2)CC1 | 11.4
CN(Cc1ccccc1)C(=O)C1CCN(S(=O)(=O)c2cccc3nsnc23)CC1 | 7.87
c1ccc(C2[C@H]3CN(CC4CCCCC4)[C@H](c4ccccc4)C34CC2(c2cccnc2)C4)cc1 (stereo partly shown) | 0.067
